The whole screen tested about 360,000 compounds, of which about 17,000 (4.7%) were called active. Inconclusive means that the source gave no clear call. Such entries were picked first, then a sample of the others. Cut-off read from the data, not from the text of the source: active = activity change below about -50%; inconclusive = mostly about -30% to -49%; inactive = weaker than that.
Test: qHTS for Inhibitors of Inflammasome Signaling: IL-1-beta AlphaLISA Primary Screen
Conditions: THP-1 LPS/ATP IL-1B secretion, 16 h; at 57.5 µM, stronger effect = lower value
Summary of the method: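 Secreted IL-1B measured by AlphaLISA bead assay after 16 h compound exposure of THP-1 cells; compounds (final up to 57.5 uM) added 1 h before LPS (250 ng/mL) and ATP (1.25 mM) stimulation; lower signal means less secretion.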
% is set by controls: 0 for no effect and ±100 for the full control effect.

| SMILES | activity change |
| --- | --- |
| COCCn1ccc2c(OCC(=O)Nc3ccccc3OC)cccc2c1=O | inconclusive: -31.3% |
| C=C(C)COc1ccc(-c2ncncc2-c2ccccc2)c(O)c1 | inconclusive: -34% |
| Cc1oc(-c2ccc(Cl)cc2)nc1CN1CCC(C(=O)NCCCN2CCCC(C)C2)CC1 (stereo unspecified) | inconclusive: -31.1% |
| CCOC(=O)c1c(NC(=O)CN2C(=O)NC3(CCCC3)C2=O)sc(C)c1CC | active: -56.8% |
| O=C1CS/C(=C/C(=O)c2cccc(Cl)c2)N1 | inconclusive: -33.6% |
| CCn1c(C)c(C)c2cc(C(=O)Nc3cccc(Cl)c3)ccc21 | inconclusive: -33.6% |
| CC1CCCN(CCCNC(=O)C2CCC(CNS(=O)(=O)c3cccc4nsnc34)CC2)C1 (stereo unspecified) | inconclusive: -33.6% |
| CCCCNC(=O)C1CCN(Cc2ccc(OCc3ccccc3)cc2)CC1 | inactive: -7.82% |
| COc1ccccc1C(=O)C1CCCN(Cc2cn[nH]c2C2CCCCC2)C1 (stereo unspecified) | inconclusive: -42.1% |
| CC(=O)c1sc(NC(=O)CCCc2nc3ccccc3c(=O)[nH]2)nc1-c1ccccc1 | inconclusive: -35.7% |
| Cc1ccc(S(=O)(=O)N(C)c2ccc(C(=O)N3CCc4ccccc4C3)cc2)cc1 | active: -62% |
| CCOCCCNC(=S)N(CCCN(C)C)Cc1cc2cc3c(cc2[nH]c1=O)OCCO3 | inconclusive: -30.6% |
| CC1CCCN(C(=O)COc2ccc(NC(=O)c3cccs3)cc2)C1 (stereo unspecified) | active: -56.5% |
| Cc1ccc2[nH]c(=O)c(CN(Cc3ccccc3)C(=S)NCCCN(C)C)cc2c1 | active: -87.4% |
| Cn1c(C(=O)NCC2CCCO2)cc2c(=O)[nH]c3ccccc3c21 (stereo unspecified) | inconclusive: -31.1% |
| C=C(C)COc1ccc(-c2[nH]ncc2Oc2ccccc2OCC)c(O)c1 | active: -63% |
| O=C(CC12CC3CC(CC(C3)C1)C2)Nc1nncs1 | inconclusive: -45.8% |
| CCOC(=O)N1CCN(S(=O)(=O)c2ccc(C(=O)N(CCCN(C)C)c3nc4c(C)c(C)ccc4s3)cc2)CC1 | inconclusive: -37.7% |
| COc1cccc(N2CC(C(=O)Nc3ccc(C(=O)OC(C)C)cc3)CC2=O)c1 (stereo unspecified) | inactive: -1.4% |

| SMILES | activity change |
| --- | --- |
| CC1CCc2nc(NC(=O)Cc3cccs3)sc2C1 (stereo unspecified) | inconclusive: -45.7% |
| CC(=O)N(c1ccccc1)C(C(=O)c1ccccc1)c1ccccc1 (stereo unspecified) | inconclusive: -32.1% |
| O=C(NCCN1CCC(n2c(=O)[nH]c3ccccc32)CC1)c1ccc(OC(F)(F)F)cc1 | inconclusive: -41% |
| CCCCCCCCNCCS(=O)(=O)NCc1ccc(OC)cc1 | active: -50.3% |
| CCc1ccc(/C=C\C(=O)N2CCc3ccccc3C2)cc1 | inconclusive: -33.2% |
| Cc1nn(-c2ccccn2)c2nc(-c3cccs3)cc(C(=O)N3CCOCC3)c12 | inconclusive: -32.4% |
| COc1cc(OC)cc(C(=O)NC(C(=O)NNC(=O)c2ccc(C)cc2)C(C)C)c1 (stereo unspecified) | inconclusive: -44% |
| CCC(C)N1C(=O)N(c2cccc(Cl)c2)C(C)(O)CC1(C)C (stereo unspecified) | inactive: -2.38% |
| CC(=O)Nc1ccc(/C=C/c2ccc3cccc([N+](=O)[O-])c3n2)cc1 | inactive: -7.98% |
| CC(CCc1ccccc1)NC(=O)COC(=O)c1ccc([N+](=O)[O-])cc1 (stereo unspecified) | inactive: 28.6% |
| O=C(CN1C(=O)c2ccccc2C1=O)NC1CCCCCC1 | inactive: 2.81% |
| CCc1nc(NCC2CC2)c2nnn(Cc3ccccc3)c2n1 | inactive: 0% |
| Fc1cccc(Cc2c(-c3ccc(Cl)cc3)nc3ccc(Br)cn23)c1 | inconclusive: -30.3% |
| O=C(CSc1nnc2ccccn12)Nc1ccccc1Cl | inconclusive: -45.3% |
| C=CCN(c1ccccc1)S(=O)(=O)c1cc(C(=O)NC2=NCCS2)ccc1Cl | inactive: 3.02% |
| CN1CCN(c2ccc(NC(=O)c3ccc(-c4ccc(Br)cc4)o3)cc2)CC1 | active: -91.5% |
| C=CCn1c(=N)n(CC(=O)c2ccc(Br)cc2)c2ccccc21 | active: -83.5% |
| Cc1nc(NC(=O)c2ccccc2)sc1-c1cc(C(=O)NCCO)nn1Cc1ccccc1 | inconclusive: -33.8% |
| COc1ccc(OC)c(NC(=O)CSc2nc(=O)n(CCN3CCOCC3)c3c2CCC3)c1 | inactive: -1.46% |

| SMILES | activity change |
| --- | --- |
| CCCCNC(=O)C[C@@H]1C[C@@]2(C(=O)OCC)CCCC=C2N(Cc2ccc(Cl)cc2Cl)C1=O | inconclusive: -34.9% |
| COc1ccc(CCNC(=O)c2sc3ccccc3c2Cl)cc1OC | inconclusive: -37.1% |
| Cn1cc(C(=O)c2cccc(Cl)c2)cc1/C=N\O | active: -64.2% |
| Oc1ccccc1CN1CCN(C(O)(c2ccccc2)c2ccccc2)CC1 | inconclusive: -36.8% |
| O=S(=O)(/N=C(/Nc1ccccn1)c1ccccc1)c1ccccc1 | inactive: 8.62% |
| COc1ccc(-n2nc(C#N)c(Cl)cc2=O)cc1 | active: -106% |
| CS(=O)(=O)Nc1ccccc1C(=O)NCCSc1ccc(Cl)cc1 | inactive: 16.8% |
| Cc1ccccc1Cn1cnc2c(nnn2Cc2ccc(F)cc2)c1=O | inactive: 14.6% |
| Cn1nc(C(=O)N2CCN(c3ccc(Cl)cc3)CC2)c2c1-c1ccccc1S(=O)(=O)C2 | active: -57.8% |
| O=S(=O)(c1ccc(Br)cc1)c1nc(-c2ccccc2)oc1NCCN1CCOCC1 | active: -61.2% |
| O=C(O)c1ccccc1C(=O)N1CCc2c([nH]c3ccccc23)C1C(F)(F)F (stereo unspecified) | inconclusive: -49.2% |
| CCOc1ccc(-n2c(-c3ccccc3)c[n+]3c2CCC3)cc1 | active: -68.3% |
| Cc1[nH]c2ccccc2c1N=Nc1ccccc1F | inconclusive: -36.9% |
| CCCN(CC(=O)Nc1ccc(Cl)cc1Cl)C(=O)/C=C/c1cccc([N+](=O)[O-])c1 | inconclusive: -30.1% |
| O=C(Nc1ccc(Cl)c(Cl)c1)C1=Cc2ccccc2OC1 | inconclusive: -38% |
| COCCNC(=O)/C(C#N)=C/c1c(N2CCN(c3cccc(Cl)c3)CC2)nc2c(C)cccn2c1=O | inconclusive: -33% |
| CCC(C(=O)NC1CCCC1)N(C(=O)Cn1nnc(-c2ccc(OC)c(OC)c2)n1)C1CCCCC1 (stereo unspecified) | inconclusive: -32.8% |
| Cc1ccc(N2CCN(S(=O)(=O)c3cccs3)CC2C)cc1 (stereo unspecified) | inconclusive: -45.2% |
